In article PMC7904913 one finds binding data, which are given here for three molecules.

Sequences of proteins named here, by UniProt entry; tags and fusion partners are left off. Residues count along the entry.
UniProt Q9NZQ7, residues 19-290: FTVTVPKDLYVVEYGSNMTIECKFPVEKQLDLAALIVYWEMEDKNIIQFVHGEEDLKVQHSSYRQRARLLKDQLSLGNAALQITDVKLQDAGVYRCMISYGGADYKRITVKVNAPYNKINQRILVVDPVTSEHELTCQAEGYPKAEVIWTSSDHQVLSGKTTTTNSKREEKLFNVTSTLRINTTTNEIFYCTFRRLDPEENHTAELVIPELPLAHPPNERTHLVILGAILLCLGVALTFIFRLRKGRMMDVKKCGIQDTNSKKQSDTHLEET

Assay [1] addresses Programmed death ligand-1 (PD-L1), endogenous in RKO cells (human (endogenous in RKO)) (UniProt Q9NZQ7). Description: condition: only in the cytosol fraction (cytoplasmic and membrane proteins); co-IP; cytosol fraction (containing cytoplasmic and membrane proteins) of wild-type RKO cells; anti-PD-L1 antibody.
For assay [2] the target is unchanged. As to the kind of experiment: co-IP; total lysates from RKO cells; antibodies against PD-L1, Scc1, SA1 or SMC1; endogenous proteins.
Assay [3] has the same target. As to the kind of experiment: co-IP; nuclear fraction of wild-type RKO cells; anti-PD-L1 antibody.
For assay [4], the target named is PD-L1, wild type, expressed in HEK293T cells (UniProt Q9NZQ7). Description: co-IP; HEK293T cells transfected with the indicated plasmids (PD-L1 and its deletion mutants).
A further assay concerns the target GST-PD-L1 (UniProt Q9NZQ7). Description: pull-down; in vitro; purified GST-PD-L1 with His-Scc1, His-SA1 and His-SMC1; Western analysis with anti-His; both purified.

These are yes or no findings as the source states them, for the method shown. For some assays here: In cells and extracts the contact can be indirect. Some results given as binding are weak or reduced against the parent protein; the word gives no strength. For some assays here: Tags and fused reporters may be left off the sequences shown.

B1: cohesin subunit SA1 (Scc3/SA1), endogenous in RKO cells (protein, UniProt Q8WVM7 1-1258)
chain: MITSELPVLQDSTNETTAHSDAGSELEETEVKGKRKRGRPGRPPSTNKKPRKSPGEKSRIEAGIRGAGRGRANGHPQQNGEGEPVTLFEVVKLGKSAMQSVVDDWIESYKQDRDIALLDLINFFIQCSGCRGTVRIEMFRNMQNAEIIRKMTEEFDEDSGDYPLTMPGPQWKKFRSNFCEFIGVLIRQCQYSIIYDEYMMDTVISLLTGLSDSQVRAFRHTSTLAAMKLMTALVNVALNLSIHQDNTQRQYEAERNKMIGKRANERLELLLQKRKELQENQDEIENMMNSIFKGIFVHRYRDAIAEIRAICIEEIGVWMKMYSDAFLNDSYLKYVGWTLHDRQGEVRLKCLKALQSLYTNRELFPKLELFTNRFKDRIVSMTLDKEYDVAVEAIRLVTLILHGSEEALSNEDCENVYHLVYSAHRPVAVAAGEFLHKKLFSRHDPQAEEALAKRRGRNSPNGNLIRMLVLFFLESELHEHAAYLVDSLWESSQELLKDWECMTELLLEEPVQGEEAMSDRQESALIELMVCTIRQAAEAHPPVGRGTGKRVLTAKERKTQIDDRNKLTEHFIITLPMLLSKYSADAEKVANLLQIPQYFDLEIYSTGRMEKHLDALLKQIKFVVEKHVESDVLEACSKTYSILCSEEYTIQNRVDIARSQLIDEFVDRFNHSVEDLLQEGEEADDDDIYNVLSTLKRLTSFHNAHDLTKWDLFGNCYRLLKTGIEHGAMPEQIVVQALQCSHYSILWQLVKITDGSPSKEDLLVLRKTVKSFLAVCQQCLSNVNTPVKEQAFMLLCDLLMIFSHQLMTGGREGLQPLVFNPDTGLQSELLSFVMDHVFIDQDEENQSMEGDEEDEANKIEALHKRRNLLAAFSKLIIYDIVDMHAAADIFKHYMKYYNDYGDIIKETLSKTRQIDKIQCAKTLILSLQQLFNELVQEQGPNLDRTSAHVSGIKELARRFALTFGLDQIKTREAVATLHKDGIEFAFKYQNQKGQEYPPPNLAFLEVLSEFSSKLLRQDKKTVHSYLEKFLTEQMMERREDVWLPLISYRNSLVTGGEDDRMSVNSGSSSSKTSSVRNKKGRPPLHKKRVEDESLDNTWLNRTDTMIQTPGPLPAPQLTSTVLRENSRPMGDQIQEPESEHGSEPDFLHNPQMQISWLGQPKLEDLNRKDRTGMNYMKVRTGVRHAVRGLMEEDAEPIFEDVMMSSRSQLEDMNEEFEDTMVIDLPPSRNRRERAELRPDFFDSAAIIEDDSGFGMPMF
In the case of B1, the values for the binding entry in assay [1], in assay [2] and in assay [3] were “no binding”, “binds” and “binds”, respectively.

B2: SA1 in HEK293T cells (protein, UniProt Q8WVM7 1-1258)
chain: B1 chain
Take B2: the binding result in assay [4] was “binds”.

B3: His-SA1 (protein, UniProt Q8WVM7 1-1258)
chain: B1 chain
Turning to B3, in the assay with GST-PD-L1, the binding entry is “binds”.
